Laboratory results as given in the supplement of paper PMC4967469.
The IC50 comes from the fitted curve, where viability falls to half of the control; a limit (>, <) means that the fit lies beyond the doses tested. The AUC spans the tested range (256-fold, ending at the top dose) of the same fit: 1 means no effect, lower means more sensitive. For part of these data: Where the top dose is marked as inferred, it was calculated from the reported fits.

Experiments:
Assay in all cases: Viability of human cancer cell lines after 72 h of drug (GDSC screen)
AV-951 = compound: COc1cc2nccc(Oc3ccc(NC(=O)Nc4cc(C)on4)c(Cl)c3)c2cc1OC [AV-951]; settings: top dose 0.128 µM; top dose inferred
Description: (§1)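 Human cancer cell lines in 384-well plates, medium with 10% serum, drug for 72 h over a 256-fold dose range (nine 2-fold or five 4-fold steps up to the top dose). Adherent lines were fixed and stained with the nucleic acid dye Syto60, suspension lines read with resazurin; signal relative to control wells, capped at 0 and 100%. One two-parameter sigmoid per drug and line, fitted in a mixed model over all curves with the slope shared within a line.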

PF-4708671 = compound: CCc1cncnc1N1CCN(Cc2nc3ccc(C(F)(F)F)cc3[nH]2)CC1 [PF-4708671]; settings: top dose 10 µM; top dose inferred
Description: as §1

Trametinib = compound: CC(=O)Nc1cccc(-n2c(=O)n(C3CC3)c(=O)c3c(Nc4ccc(I)cc4F)n(C)c(=O)c(C)c32)c1 [Trametinib]; settings: top dose 1 µM
Description: as §1

I-BET-762 = compound: CCNC(=O)C[C@@H]1N=C(c2ccc(Cl)cc2)c2cc(OC)ccc2-n2c(C)nnc21 [I-BET-762]; settings: top dose 20 µM; top dose inferred
Description: as §1

HG-6-64-1 = compound: CCN1CCN(Cc2ccc(NC(=O)c3ccc(C)c(/C=C/c4cnc5[nH]ccc5c4OC)c3)cc2C(F)(F)F)CC1 [HG-6-64-1]; settings: top dose 5.12 µM; top dose inferred
Description: as §1

KIN001-244 = compound: O=C(NC(COc1ccc2[nH]c(=O)[nH]c2c1)c1ccccc1)c1cccn(Cc2ccc(F)c(F)c2)c1=O [KIN001-244]; settings: top dose 20 µM; top dose inferred
Description: as §1

Cell Line | AUC (AV-951) | IC50 (AV-951) [µM] | AUC (PF-4708671) | IC50 (PF-4708671) [µM] | AUC (Trametinib) | IC50 (Trametinib) [µM] | AUC (I-BET-762) | IC50 (I-BET-762) [µM] | AUC (HG-6-64-1) | IC50 (HG-6-64-1) [µM] | AUC (KIN001-244) | IC50 (KIN001-244) [µM]
SW620 (large intestine, adherent) | 0.99 | > 0.128 | 0.981 | > 10 | 0.236 | 0.0121 | 0.95 | > 20 | 0.858 | 3.44 | 0.921 | > 20
SW626 (ovary, adherent) | 0.964 | > 0.128 | 0.981 | > 10 | 0.234 | 0.00894 | 0.983 | > 20 | 0.761 | 2.14 | 0.907 | > 20
SW756 (cervix, adherent) | 0.984 | > 0.128 | 0.952 | > 10 | 0.569 | 0.1 | 0.983 | > 20 | 0.941 | > 5.12 | 0.959 | > 20
SW837 (large intestine, adherent) | 0.983 | > 0.128 | 0.941 | > 10 | 0.615 | 0.143 | 0.879 | > 20 | 0.945 | > 5.12 | 0.916 | > 20
SW900 (lung squamous cell carcinoma, adherent) | 0.984 | > 0.128 | 0.953 | > 10 | 0.492 | 0.0592 | 0.928 | > 20 | 0.834 | 4.1 | 0.942 | > 20
SW948 (large intestine, adherent) | 0.982 | > 0.128 | 0.982 | > 10 | 0.889 | > 1 | 0.815 | 18.2 | 0.921 | > 5.12 | 0.91 | > 20
SW982 (soft tissue, adherent) | 0.977 | > 0.128 | 0.948 | > 10 | 0.5 | 0.0623 | 0.819 | 11.9 | 0.534 | 0.399 | 0.863 | 18.1
SW1088 (glioma, adherent) | 0.942 | > 0.128 | 0.96 | > 10 | 0.728 | 0.343 | 0.972 | > 20 | 0.727 | 1.74 | 0.933 | > 20
SW1271 (small cell lung carcinoma, adherent) | 0.984 | > 0.128 | 0.975 | > 10 | 0.269 | 0.0123 | 0.798 | 11.2 | 0.689 | 1.18 | 0.754 | 7.68
SW1417 (large intestine, adherent) | 0.984 | > 0.128 | 0.979 | > 10 | 0.863 | > 1 | 0.914 | > 20 | 0.832 | 4.08 | 0.93 | > 20
SW1463 (large intestine, adherent) | 0.977 | > 0.128 | 0.959 | > 10 | 0.397 | 0.0267 | 0.977 | > 20 | 0.87 | > 5.12 | 0.976 | > 20
SW1573 (lung adenocarcinoma, adherent) | 0.98 | > 0.128 | 0.835 | > 10 | 0.714 | 0.315 | 0.981 | > 20 | 0.649 | 0.958 | 0.974 | > 20
SW1710 (bladder, adherent) | 0.986 | > 0.128 | 0.964 | > 10 | 0.447 | 0.0445 | 0.954 | > 20 | 0.49 | 0.3 | 0.778 | 8.33
SW1783 (glioma, adherent) | 0.986 | > 0.128 | 0.971 | > 10 | 0.972 | > 1 | 0.991 | > 20 | 0.732 | 1.35 | 0.955 | > 20
SW1990 (pancreas, adherent) | 0.979 | > 0.128 | 0.985 | > 10 | 0.637 | 0.16 | 0.985 | > 20 | 0.865 | > 5.12 | 0.953 | > 20
Saos-2 (osteosarcoma, adherent) | 0.981 | > 0.128 | 0.967 | > 10 | 0.946 | > 1 | 0.981 | > 20 | 0.681 | 1.28 | 0.981 | > 20
T84 (large intestine, adherent) | 0.985 | > 0.128 | 0.938 | > 10 | 0.77 | 0.385 | 0.987 | > 20 | 0.945 | > 5.12 | 0.924 | > 20
T98G (glioma, adherent) | 0.984 | > 0.128 | 0.974 | > 10 | 0.921 | > 1 | 0.985 | > 20 | 0.658 | 0.844 | 0.907 | > 20
T-T (oesophagus, adherent) | 0.987 | > 0.128 | 0.965 | > 10 | 0.824 | 0.592 | 0.959 | > 20 | 0.593 | 0.575 | 0.853 | 15.5
TCCSUP (bladder, adherent) | 0.983 | > 0.128 | 0.949 | > 10 | 0.868 | > 1 | 0.984 | > 20 | 0.489 | 0.298 | 0.939 | > 20
TE-11 (oesophagus, adherent) | 0.99 | > 0.128 | 0.983 | > 10 | 0.895 | > 1 | 0.988 | > 20 | 0.904 | > 5.12 | 0.966 | > 20
TGBC11TKB (stomach, adherent) | 0.991 | > 0.128 | 0.943 | > 10 | 0.8 | 0.418 | 0.979 | > 20 | 0.992 | > 5.12 | 0.909 | > 20

Cell Line | AUC (AV-951) | IC50 (AV-951) [µM] | AUC (PF-4708671) | IC50 (PF-4708671) [µM] | AUC (Trametinib) | IC50 (Trametinib) [µM] | AUC (I-BET-762) | IC50 (I-BET-762) [µM] | AUC (HG-6-64-1) | IC50 (HG-6-64-1) [µM] | AUC (KIN001-244) | IC50 (KIN001-244) [µM]
TGBC24TKB (biliary tract, adherent) | 0.99 | > 0.128 | 0.984 | > 10 | 0.744 | 0.296 | 0.928 | > 20 | 0.841 | 3.24 | 0.963 | > 20
TMK-1 (stomach, adherent) | 0.986 | > 0.128 | 0.976 | > 10 | 0.57 | 0.098 | 0.984 | > 20 | 0.849 | 4.18 | 0.949 | > 20
TOV-21G (ovary, adherent) | 0.937 | > 0.128 | 0.935 | > 10 | 0.577 | 0.103 | 0.975 | > 20 | 0.794 | 2.59 | 0.985 | > 20
TOV-112D (ovary, adherent) | 0.978 | > 0.128 | 0.908 | > 10 | 0.744 | 0.315 | 0.785 | 8.65 | 0.564 | 0.478 | 0.87 | 18.9
TT2609-C02 (thyroid, adherent) | 0.984 | > 0.128 | 0.982 | > 10 | 0.83 | 0.683 | 0.883 | > 20 | 0.364 | 0.131 | 0.966 | > 20
TT (thyroid, adherent) | 0.982 | > 0.128 | 0.951 | > 10 | 0.885 | > 1 | 0.98 | > 20 | 0.867 | > 5.12 | 0.965 | > 20
TYK-nu (ovary, adherent) | 0.975 | > 0.128 | 0.921 | > 10 | 0.287 | 0.0149 | 0.87 | > 20 | 0.935 | > 5.12 | 0.879 | > 20
U031 (kidney, adherent) | 0.981 | > 0.128 | 0.923 | > 10 | 0.466 | 0.0502 | 0.943 | > 20 | 0.766 | 1.95 | 0.974 | > 20
U251 (glioma, adherent) | 0.986 | > 0.128 | 0.941 | > 10 | 0.688 | 0.204 | 0.908 | > 20 | 0.728 | 1.37 | 0.749 | 6.22
U-118-MG (glioma, adherent) | 0.97 | > 0.128 | 0.968 | > 10 | 0.779 | 0.475 | 0.968 | > 20 | 0.916 | > 5.12 | 0.87 | > 20
UACC-62 (melanoma, adherent) | 0.988 | > 0.128 | 0.973 | > 10 | 0.105 | < 0.00391 | 0.987 | > 20 | 0.694 | 1.11 | 0.912 | > 20
UACC-893 (breast, adherent) | 0.981 | > 0.128 | 0.749 | 4.24 | 0.705 | 0.29 | 0.959 | > 20 | 0.981 | > 5.12 | 0.888 | > 20
UM-UC-3 (bladder, adherent) | 0.984 | > 0.128 | 0.953 | > 10 | 0.726 | 0.26 | 0.974 | > 20 | 0.878 | 4.65 | 0.755 | 6.4
UMC-11 (lung carcinoid, adherent) | 0.99 | > 0.128 | 0.954 | > 10 | 0.977 | > 1 | 0.913 | > 20 | 0.932 | > 5.12 | 0.89 | 18.8
VMRC-MELG (melanoma, adherent) | 0.985 | > 0.128 | 0.987 | > 10 | 0.948 | > 1 | 0.739 | 6.24 | 0.923 | > 5.12 | 0.785 | 8.99
VMRC-RCZ (kidney, adherent) | 0.984 | > 0.128 | 0.911 | > 10 | 0.904 | > 1 | 0.967 | > 20 | 0.552 | 0.455 | 0.866 | > 20
WM35 (melanoma, adherent) | 0.977 | > 0.128 | 0.986 | > 10 | 0.068 | < 0.00391 | 0.804 | 10.1 | 0.632 | 0.74 | 0.756 | 6.9
WM278 (melanoma, adherent) | 0.983 | > 0.128 | 0.98 | > 10 | 0.624 | 0.143 | 0.903 | > 20 | 0.347 | 0.114 | 0.784 | 9.61
WM793B (melanoma, adherent) | 0.971 | > 0.128 | 0.787 | 4.84 | 0.445 | 0.0435 | 0.802 | 11.1 | 0.509 | 0.339 | 0.855 | 18.7
WM1552C (melanoma, adherent) | 0.974 | > 0.128 | 0.988 | > 10 | 0.718 | 0.26 | 0.902 | > 20 | 0.693 | 1.12 | 0.979 | > 20
WM-115 (melanoma, adherent) | 0.96 | > 0.128 | 0.93 | > 10 | 0.351 | 0.0219 | 0.891 | > 20 | 0.899 | > 5.12 | 0.753 | 8.04
YAPC (pancreas, adherent) | 0.98 | > 0.128 | 0.961 | > 10 | 0.55 | 0.0885 | 0.956 | > 20 | 0.83 | 4.36 | 0.94 | > 20
